Data on 94 compounds can be found in PubChem BioAssay AID1159614 (National Center for Advancing Translational Sciences (NCATS), 2016).

Out of some 45,000 compounds screened, about 65 (0.1%) were called active. Calls follow the shape of the dose curve; as a rule, active = well fitted activation curve with a large enough effect; inconclusive = small, poorly fitted or top-dose-only effect; inactive = no such curve, though single readings can be large or run the other way. This is one part of the list.

Chain of UniProt P54803 (P54803 whole entry, looked up): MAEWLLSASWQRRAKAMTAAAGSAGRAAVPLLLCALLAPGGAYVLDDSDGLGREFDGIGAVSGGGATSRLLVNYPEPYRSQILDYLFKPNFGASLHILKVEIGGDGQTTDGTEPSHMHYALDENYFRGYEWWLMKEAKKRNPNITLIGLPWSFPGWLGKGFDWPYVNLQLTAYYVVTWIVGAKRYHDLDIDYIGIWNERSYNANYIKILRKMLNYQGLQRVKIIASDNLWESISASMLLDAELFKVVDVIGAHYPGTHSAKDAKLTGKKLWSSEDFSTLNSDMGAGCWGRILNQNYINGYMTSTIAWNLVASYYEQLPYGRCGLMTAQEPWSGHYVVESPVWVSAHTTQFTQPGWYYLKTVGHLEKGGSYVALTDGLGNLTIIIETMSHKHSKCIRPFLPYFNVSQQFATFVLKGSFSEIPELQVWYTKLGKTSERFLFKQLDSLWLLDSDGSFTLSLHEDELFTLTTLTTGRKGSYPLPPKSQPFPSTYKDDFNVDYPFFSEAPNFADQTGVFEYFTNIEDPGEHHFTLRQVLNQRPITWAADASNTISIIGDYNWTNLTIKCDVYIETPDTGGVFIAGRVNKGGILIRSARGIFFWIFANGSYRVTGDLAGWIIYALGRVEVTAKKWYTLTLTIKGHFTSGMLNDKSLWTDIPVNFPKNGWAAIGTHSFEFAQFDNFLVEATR

In this assay the target is Galactocerebrosidase (Homo sapiens) (UniProt P54803). The experiment in a line: A Novel Cell-Based Assay to Identify Small Molecules for B -Galactocerebrosidase. Also: 0% is about no effect; nearly all actives have a fitted effect of over 65% in size. The note with it: 145M-Twi-hGALC-G270D cells (Twitcher mouse brain line with human GALC G270D), HMU-beta-Gal fluorescence, 48 h; series mostly up to 57.5 µM; activation: at the top concentration. The essentials:
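Fluorogenic HMU-b-Gal hydrolysis (0.1 mM final, pH 5.2 citrate-phosphate with 1 mg/mL sodium taurocholate; carbonate stop buffer) measures mutant GALC activity after compound treatment of live 145M-Twi Twitcher brain cells stably carrying human GALC-G270D, with wild-type GALC line alongside; activation sought.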
In the case of `CCc1nn(Cc2cc(C)ccc2C)c(=O)c2cc3cc(C)ccc3n12`, the “activation” value is inactive: -3.39%.
Regarding `CCOC(=O)c1c(S(=O)(=O)NCC(=O)Nc2cc(C)ccc2C)c(C)n(C)c1C`, the “activation” value is inactive: 6.52%.
In the case of `Cc1ccc(NS(=O)(=O)c2ccc3c(c2)CCCN3C(=O)C2CCC2)c(C)c1`, the “activation” value is inactive: -13.9%.
Consider `COc1ccc(C2(CNC(=O)C(=O)Nc3ccc(F)cc3)CCCC2)cc1OC`, for which the “activation” value was inactive: -27%.
`COC(=O)c1nnn(-c2cccc(C)c2)c1C(=O)OC`: the “activation” value was inactive: -20.6%.
On to `CCCSc1nc2sc3c(c2c(=O)n1Cc1ccccc1)CC(C)(CC)OC3` (centres undefined), for which the “activation” value is inactive: -3.53%.
`Cc1ccc(NC(=O)C2CCC(CNS(=O)(=O)c3csc(C(N)=O)c3)CC2)cc1Cl` (centres undefined): the “activation” value is inactive: -13.3%.
In the case of `COc1ccc(Cl)cc1-n1nnc(-c2nsc(NC(=O)c3ccccc3Cl)n2)c1C`, the “activation” value is inactive: -10.6%.
Consider `CCc1ccccc1NC(=O)C(=O)NCC(c1cccnc1)N1CCN(c2ccccc2F)CC1` (centres undefined), for which the “activation” value was inactive: -11.9%.
With `COc1ccc(N2CCN(C(=O)c3cc4c(s3)-c3ccccc3OC4)CC2)cc1`, the “activation” value was inactive: 21.5%.
Turning to `Cc1ccc(-c2cn3c(n2)sc2cc(C(=O)NC(C)C45CC6CC(CC(C6)C4)C5)ccc23)cc1` (centres undefined), the “activation” value is inactive: 0.137%.
With `CCOC(=O)C1CCN(S(=O)(=O)c2csc(C(N)=O)c2)CC1` the figure was inactive: -12.3%; with `COc1ccc(N2CC(NC(=O)c3ccc(Br)o3)CC2=O)cc1` (centres undefined), inactive: 4.47%.
With `CCc1nn2c(=O)cc(COC(=O)c3ccco3)nc2s1` the figure was inactive: -5.27%; with `CCOc1ccc(C(=O)NCCS(=O)(=O)N2CCN(c3ccccc3F)CC2)cc1OCC`, inactive: -15.2%.
Take `Cc1cc(Cl)ccc1NC(=O)CN(c1ccccc1Br)S(C)(=O)=O`: the “activation” value is inactive: -3.34%.
As for `COc1ccc(CN2CCN(c3ncnc4sc5c(c34)CC(C)CC5)CC2)cc1F` (centres undefined), the “activation” value is inactive: -19.5%.
With `Cc1ccccc1C(=O)Nc1nc(-c2nnn(-c3ccc(C(C)C)cc3)c2C)ns1` the figure was inactive: 9.87%; with `O=C(Cn1ncc2c([nH]c3ccccc32)c1=O)NCC1CCN(Cc2ccc(F)cc2)CC1`, inactive: 0.731%; with `CCOc1ccccc1CNC(=O)C1CCN(S(=O)(=O)c2ccc3c(ccn3C)c2)CC1`, inactive: -9.03%.
Regarding `C[C@H]1O[C@@H](O[C@H]2CC[C@@]3(C)[C@H](CC[C@@H]4[C@@H]3C[C@@H](O)[C@]3(C)[C@@H](C5=CC(=O)OC5)CC[C@]43O)C2)C[C@H](O)[C@@H]1O[C@H]1C[C@H](O)[C@H](O[C@H]2C[C@H](O)[C@H](O[C@@H]3O[C@H](CO)[C@@H](O)[C@H](O)[C@H]3O)[C@@H](C)O2)[C@@H](C)O1`, the “activation” value was inactive: -15.7%.
With `COc1ccccc1N1CCN(CCCNC(=O)c2cnn(-c3ccccc3)c2C2CCN(C(=O)OC(C)(C)C)CC2)CC1` the figure was inactive: 1.62%; with `CC1=C(C(=O)NCc2ccc(Cl)cc2)C2(CCCCC2)OC1=O`, inactive: -15.3%.
For `Cc1ccc(/C=C/c2onc(C)c2S(=O)(=O)N2CCC(C(=O)NCC(C)c3ccccc3)CC2)cc1` (centres undefined), the “activation” value was inactive: 0.737%.
Regarding `CC(C)C(=O)Nc1ccc([N+](=O)[O-])c(C(F)(F)F)c1`, the “activation” value is inactive: -12.4%.
As for `CCn1cc(S(=O)(=O)c2cccc(Cl)c2)c(=O)c2cc(F)c(N3CCN(c4ccccc4)CC3)cc21`, the “activation” value is inactive: 2.8%.
For `Cc1ccc(C)n1-c1nnc(N2CCCC(C(=O)NCc3cccc(Cl)c3)C2)s1` (centres undefined), the “activation” value is inactive: -10.8%.
As to `CCc1ccc(-n2c(Cc3ccccc3)nnc2SCc2nc(-c3cccs3)no2)cc1`, the “activation” value is inactive: -32.4%.
`COc1ccc(NS(=O)(=O)c2ccc3[nH]c4c(c3c2)CCCC4)cc1Cl`: the “activation” value was inactive: -14.3%.
Take `Cc1ccc(CN2C(=O)c3oc4ccc(C)cc4c(=O)c3C2c2ccc(O)cc2)cc1` (centres undefined): the “activation” value is inactive: -21.2%.
Regarding `COc1cc(OC)c(NC(=O)Cn2c(=O)oc3cc(S(=O)(=O)N4CCCC4)ccc32)cc1Cl`, the “activation” value is inactive: -5.56%.
As to `Cc1ccc(Cl)cc1N1CCN(S(=O)(=O)c2ccc3c(c2)CCCN3C(=O)C2CCC2)CC1`, the “activation” value is inactive: 21.8%.
With `CCCCCn1c(-c2ccc(OC)c(OC)c2)nc2ccccc21`, the “activation” value is inactive: -17.4%.
With `O=C(NCCc1ccccc1)c1cc(Sc2cccc(Cl)c2)nc2ccccc12` the figure was inactive: -11.9%; with `Cc1c(-c2nsc(NC(=O)c3ccccc3)n2)nnn1-c1ccc(C(F)(F)F)c(Cl)c1`, inactive: -9.18%; with `CCOC(=O)c1cccc(NC(=O)[C@@H](c2ccccc2)N2Cc3ccccc3C2=O)c1`, inactive: -5.53%.
With `O=C1c2oc3ccccc3c(=O)c2C(c2ccccc2)N1Cc1ccc2c(c1)OCO2` (centres undefined) the figure was inactive: -11.2%; with `CN1C(=O)c2ccccc2Sc2ccc(NC(=O)c3ccccc3F)cc21`, inactive: -4.78%.
For `CC1COc2c(N3CCN(C)CC3)c(F)cc3c(=O)c(C(=O)O)cn1c23` (centres undefined), the “activation” value was inactive: -6.49%.
Consider `CCN1C(=O)c2ccccc2Sc2ccc(C(=O)NCCCN(CC(C)C)CC(C)C)cc21`, for which the “activation” value is inactive: 0.187%.
With `Cc1cc(C)c(NC(=O)Cc2csc(C)n2)c(Cl)c1` the figure was inactive: -6.43%.
On to `O=C(NCC1CCN(Cc2cccc(Cl)c2)CC1)Nc1cc(Cl)ccc1Cl`, for which the “activation” value was inactive: -10.1%.
With `COc1cccc(NC(=O)CN2C(=O)c3cccnc3Oc3ccc(Cl)cc32)c1`, the “activation” value was inactive: -11%.
With `COc1ccc(N(C)C(=O)CCn2cnc3onc(-c4ccc(F)cc4)c3c2=O)c(OC)c1` the figure was inactive: -5.75%; with `CCc1ccc(NC(=O)c2sc(-n3nc(C)c(Cc4ccc(OC)cc4)c3C)nc2C)cc1`, inactive: 2.44%; with `COC(=O)c1c(-c2cccs2)csc1NC(=O)COc1ccc(C(C)(C)C)cc1`, inactive: -3.62%.
For `COc1ccccc1CNc1ccc(-c2nc(-c3cccnc3)no2)cc1[N+](=O)[O-]`, the “activation” value is inactive: -2.94%.
As for `Cc1ccc(C(=O)Nc2ccc(-c3cn4cccnc4n3)cc2)cc1C`, the “activation” value was inactive: 13.4%.
Regarding `CCOc1ccccc1NC(=O)c1nn(-c2ccc(C)cc2)c(=O)n(C)c1=O`, the “activation” value was inactive: -11.3%.
As to `CCOc1ccccc1C1C(C(=O)N2CCCCC2)=C(C)Nc2nc3ccccc3n21` (centres undefined), the “activation” value is inactive: -12.7%.
With `Cc1cccc(OCC(=O)N(Cc2cccs2)c2ccc(Cl)cc2)c1C` the figure was inactive: -4.5%; with `CCCCCS(=O)(=O)c1oc(-c2cccs2)nc1S(=O)(=O)c1ccc(C)cc1`, inactive: 0.144%; with `N[C@@H](CSSC[C@H](N)C(=O)O)C(=O)O`, inactive: -17.6% [at 0.46 µM].
As to `CC(C)(C)OC(=O)N1CCC(c2c(C(=O)N3CCC(c4ccccc4)C3)cnn2-c2cccc(Cl)c2)CC1` (centres undefined), the “activation” value was inactive: -18.1%.
With `COc1ccc(C2CC(=O)N(CC(=O)Nc3cc(C)ccc3C)c3ccccc3S2)cc1` (centres undefined) the figure was inactive: -4.15%; with `CCCCN(CCCC)C(=O)c1cc2c(=O)n3cccc(C)c3nc2s1`, inactive: 0.195%.
As to `CCCCc1ccc(NC(=O)c2cc3c(=O)n4ccccc4nc3s2)cc1`, the “activation” value is inactive: -16.9%.
For the compound `COc1ccccc1-c1nnc(SCC(=O)c2ccc(Cl)cc2)n1-c1ccccc1`, the “activation” value was inactive: 11.6%.
With `CC(NC(=O)c1ccc2c(c1)CCN2S(=O)(=O)c1ccc(Cl)cc1)c1ccccc1` (centres undefined), the “activation” value is inactive: -15.9%.
Take `CCOc1ccc(NC(=O)CSc2nc3c(oc4ccccc43)c(=O)n2-c2ccccc2C)cc1`: the “activation” value was inactive: 1.5%.
Consider `Cc1cc2n(n1)C(c1cc(C(C)(C)C)c(O)cc1O)Nc1ccccc1-2` (centres undefined), for which the “activation” value was inactive: -19.6%.
With `CC(C)=CCC1C(=O)N(c2ccccc2)N(c2ccccc2)C1=O`, the “activation” value is inactive: -5.51%.
For `CCOc1ccc(C(=O)N2CCC(c3nc4ccccc4o3)CC2)cc1`, the “activation” value is inactive: -14.7%.
On to `CSc1cccc(NC(=O)CN2C(=O)COc3ccc(Cl)cc32)c1`, for which the “activation” value was inactive: -9.87%.
As to `CCOc1ccc(OCC)c(NC(=O)c2nnn(CC(=O)Nc3ccc(C)cc3C)c2N)c1`, the “activation” value was inactive: -14.2%.
With `CCCCOc1ccc(C(=O)Nc2cccc(-c3nc4cccnc4s3)c2)cc1` the figure was inactive: -24.8%.
With `Cc1ccc(-c2nc3sc(CCNC(=O)c4ccc(Br)o4)c(C)n3n2)cc1` the figure was inactive: -15.1%; with `COc1ccc(-c2cc3ccc(O)c(CN4CCOCC4)c3oc2=O)cc1OC`, inactive: 6.53%; with `COc1ccc(NC(=O)COc2ccc(-c3nn(C)c(=O)c4ccccc34)cc2)cc1`, inactive: -9.68%.
With `COc1ccccc1CNC(=O)C(NS(=O)(=O)c1cccs1)C(C)C` (centres undefined) the figure was inactive: -9.44%; with `COc1ccc(C2=NN(CC(=O)NCCc3ccc(OC)c(OC)c3)C(=O)CC2)cc1`, inactive: -10.7%.
Consider `COc1ccc(N(C)C(=O)c2cn(C3CCCCC3)c(=O)c3c2c2ccccc2n3C)cc1`, for which the “activation” value is inactive: -16.2%.
Consider `Cc1ccc(NC(=O)NCCc2c(C)nn(C)c2C)cc1Cl`, for which the “activation” value is inactive: -3.93%.
With `CCn1ccc2cc(S(=O)(=O)N3CCCN(C(=O)Nc4cccc(Cl)c4)CC3)ccc21` the figure was inactive: -36.5%; with `COc1ccccc1NC(=O)C(=O)NCCc1csc(-c2cccc(F)c2)n1`, inactive: -25.6%; with `CCCCN(CC)CCCNC(=O)CCN1N=C(c2ccc(OC)cc2)CCC1=O`, inactive: -10.3%.
With `CCOC(=O)c1c(S(=O)(=O)N2CCCC(C(=O)Nc3cccc(Cl)c3)C2)c(C)n(C)c1C` (centres undefined), the “activation” value is inactive: -19%.
Regarding `Cc1ccc(OCC(=O)Nc2nnc(SCc3cc(=O)c4ccccc4[nH]3)s2)cc1`, the “activation” value is inactive: -0.0249%.
With `CCOc1ccccc1C(=O)Nc1ccc2nc(N(CC)CC)cc(C)c2c1` the figure was inactive: -5.95%.
`CCOc1ccc(CNS(=O)(=O)c2cc3c(cc2C)NC(=O)CO3)cc1OC`: the “activation” value was inactive: 6.08%.
With `COc1ccccc1NC(=O)C1=C(C)Nc2ncnn2C1c1ccccc1C(=O)O` (centres undefined), the “activation” value was inactive: -20.3%.
Regarding `COc1cccc(CNC(=O)c2cc3c(s2)-c2ccccc2OC3)c1`, the “activation” value is inactive: -2.95%.
As for `COc1ccc(-n2c(=O)c3c4c(sc3n(Cc3ccc(F)cc3)c2=O)CCCC4)c(OC)c1`, the “activation” value is inactive: -10.9%.
For `COc1ccc(NC(=O)c2cc(C3CC3)nc3c2c(C)nn3-c2ccccc2)cc1`, the “activation” value is inactive: -13.8%.
As to `Cc1cccc(NC(=O)c2c(C)oc3ncn(CC(C)C)c(=O)c23)n1`, the “activation” value was inactive: -5.71%.
Consider `CC(=O)N1CCc2cc(S(=O)(=O)CCC(=O)N3CCN(c4cccc(C)c4C)CC3)ccc21`, for which the “activation” value is inactive: -13.3%.
With `Cc1cccc(OCC(O)CNC(C)(C)C)c1C` (centres undefined), the “activation” value was inactive: -13%.
With `Cc1nc2c(C(=O)NCc3ccccc3)c[nH]n2c(=O)c1Cc1ccccc1Cl` the figure was inactive: -4.85%; with `Cc1sc2ncn(CC(=O)N(C)c3ccc(Br)cc3)c(=O)c2c1S(=O)(=O)N1CCC(C)CC1`, inactive: -10.8%; with `CCOc1ccc(-c2nnc(Nc3ccc(S(N)(=O)=O)cc3)c3ccccc23)cc1`, inactive: -10.4%.
Consider `CCCOC1(C(F)(F)F)NC(=O)N(c2ccc(Cl)cc2)C1=O` (centres undefined), for which the “activation” value is inactive: -10.8%.
As to `CC(C)(C)c1ccc(OCC(=O)N2CCC(c3nc4ccccc4s3)CC2)cc1`, the “activation” value is inactive: -7.56%.
For the compound `Cc1cc(C)c(NC(=O)CSc2nc(=O)[nH]c3c2CCCC3)c(C)c1`, the “activation” value is inactive: -20%.
As for `COc1ccc(NC(=O)c2noc3c2CCCC3)cc1Cl`, the “activation” value was inactive: -16.3%.
